# Measured values: the supplement of paper PMC4604168 (melanoma cell lines)
# The other results are listed elsewhere or left out. Repeats are few or missing, and single values can be far off.
# How the values were obtained:
# Assay in all cases: cell count relative to DMSO control; melanoma cells; higher = more viable cells
# Details in all cases: library dose: standard library concentration; 72 h; first compound 2 µM
# G361 = system: G361
# IPC-298 = system: IPC-298
# IST-MEL1 = system: IST-MEL1
# LB2518-MEL = system: LB2518-MEL
# LOXIMVI = system: LOXIMVI
# MEL-HO = system: MEL-HO
# MZ2-MEL = system: MZ2-MEL
# MeWo = system: MeWo
# RPMI7951 = system: RPMI7951
# RVH-421 = system: RVH-421
# SkMel28 = system: SkMel28
# SkMel2 = system: SkMel2
# SkMel30 = system: SkMel30
# SkMel5 = system: SkMel5
# UACC257 = system: UACC257
# UACC62 = system: UACC62
# WM115 = system: WM115
# WM1716 = system: WM1716
# WM1745 = system: WM1745
# WM3526 = system: WM3526
# 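Also: cells treated in 1,536-well plates, then fixed and DAPI-stained, with nuclei counted from automated high-throughput microscope images.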
Compound,cell count (G361),cell count (IPC-298),cell count (IST-MEL1),cell count (LB2518-MEL),cell count (LOXIMVI),cell count (MEL-HO),cell count (MZ2-MEL),cell count (MeWo),cell count (RPMI7951),cell count (RVH-421),cell count (SkMel28),cell count (SkMel2),cell count (SkMel30),cell count (SkMel5),cell count (UACC257),cell count (UACC62),cell count (WM115),cell count (WM1716),cell count (WM1745),cell count (WM3526)
Cn1sc(=O)n(Cc2ccccc2)c1=O + Nc1ncn([C@H]2C[C@H](O)[C@@H](CO)O2)c(=O)n1 [decitabine] (partner dose 0.5 µM),84.1%,53.6%,70.6%,72.7%,77%,82.9%,68.8%,78.1%,86.6%,95.8%,130%,103%,93.2%,76%,105%,89.2%,76.7%,65.4%,103%,85.1%
Cn1sc(=O)n(Cc2ccccc2)c1=O + CS(=O)(=O)c1ccc(C(=O)Nc2ccc(Cl)c(-c3ccccn3)c2)c(Cl)c1 [vismodegib] (partner dose 5 µM),100%,93.7%,110%,89.1%,110%,94.9%,94.1%,79.9%,87.8%,118%,100%,111%,106%,114%,114%,100%,93.3%,100%,87.8%,101%
Cn1sc(=O)n(Cc2ccccc2)c1=O + CCCCCCCCc1ccc(CCC(N)(CO)CO)cc1 [fingolimod] (partner dose 10 µM),2.12%,28.2%,15.8%,0.419%,12.9%,14%,1.73%,14.3%,1.86%,5.4%,1.25%,0.392%,13.5%,48.5%,71%,13.3%,8.36%,47.1%,1.38%,50.4%
Cn1sc(=O)n(Cc2ccccc2)c1=O + C[C@@H](Oc1cc(-c2cnn(C3CCNCC3)c2)cnc1N)c1c(Cl)ccc(F)c1Cl [Crizotinib] (partner dose 1 µM),87.7%,93.8%,99.1%,67.8%,164%,86.8%,99.7%,85.8%,76.6%,103%,84.1%,93.6%,80.5%,67.9%,101%,75.2%,50.1%,67%,64.4%,75.5%
C[C@@H](N)c1ccc(C(=O)Nc2ccnc3[nH]ccc23)cc1 + NC1(c2ccc(-c3nc4ccn5c(=O)[nH]nc5c4cc3-c3ccccc3)cc2)CCC1 [MK2206] (partner dose 2 µM),76.6%,95%,72%,100%,114%,53.2%,57.5%,63.6%,51.2%,55.3%,67.4%,95.5%,87.7%,46.2%,52.2%,66.6%,72.2%,54.2%,52.5%,67.9%
Cn1sc(=O)n(Cc2ccccc2)c1=O + OCc1c[nH]c2ccccc12 [Indole-3-carbinol] (partner dose 4 µM),105%,100%,111%,91.7%,89.7%,107%,101%,89.5%,119%,100%,117%,104%,95.6%,94.2%,127%,94.7%,97.5%,113%,114%,97.9%
C[C@@H](N)c1ccc(C(=O)Nc2ccnc3[nH]ccc23)cc1 + CN(C)S(=O)(=O)c1ccc2c(c1)/C(=C/c1cc3c([nH]1)CCCC3)C(=O)N2 [SU6656] (partner dose 2 µM),61.2%,69.5%,69.2%,57.1%,84%,71.5%,48.1%,38.9%,26.7%,56.2%,49.4%,59.3%,85.4%,54.4%,66.5%,67.5%,34.6%,24.8%,32.8%,64.1%
Cn1sc(=O)n(Cc2ccccc2)c1=O + CCCS(=O)(=O)Nc1ccc(F)c(C(=O)c2c[nH]c3ncc(Cl)cc23)c1F [PLX4720] (partner dose 0.4 µM),67%,74.8%,104%,111%,142%,93.2%,73.3%,102%,112%,76.3%,51%,110%,90.3%,72.8%,118%,83.2%,88.3%,63%,104%,68.9%
Cn1sc(=O)n(Cc2ccccc2)c1=O + C[C@]1(c2nc3c(C(N)=O)cccc3[nH]2)CCCN1 [Veliparib] (partner dose 7 µM),87.2%,90.7%,99.2%,69.4%,71.8%,94.7%,87.8%,94.8%,51.7%,96%,80%,91.5%,109%,106%,99.3%,65.5%,85.8%,91%,103%,103%
Cn1sc(=O)n(Cc2ccccc2)c1=O + O=C(O)c1ccc2c(c1)nc(Nc1cccc(Cl)c1)c1ccncc12 [CX4945] (partner dose 2 µM),63.9%,66.1%,90.9%,90.5%,43.9%,57.7%,60.3%,81.9%,98%,97.6%,95.2%,76.7%,68.2%,83.9%,101%,71.7%,109%,83%,75.3%,84.3%
CCCCCCCCCCCCCCCCCCOP(=O)([O-])OC1CC[N+](C)(C)CC1 [Perifosine] + CS(=O)(=O)CCNCc1ccc(-c2ccc3ncnc(Nc4ccc(OCc5cccc(F)c5)c(Cl)c4)c3c2)o1 [lapatinib] (partner dose 4 µM),80.9%,79.9%,91.3%,128%,77.1%,87.1%,75.2%,88.4%,63.2%,92%,79.1%,104%,93.2%,76.3%,114%,56.6%,85.6%,82.2%,96.2%,99.4%
C[C@@H](N)c1ccc(C(=O)Nc2ccnc3[nH]ccc23)cc1 + CC1(C)NC(=O)N(c2ccc([N+](=O)[O-])c(C(F)(F)F)c2)C1=O [nilutamide] (partner dose 5 µM),102%,92.8%,99.9%,114%,70.8%,83.5%,62.3%,76.4%,52.3%,45.8%,48.4%,103%,93.3%,68.2%,64.3%,79.2%,85.9%,47.5%,55.9%,74%
C[C@@H](N)c1ccc(C(=O)Nc2ccnc3[nH]ccc23)cc1 + CO[C@H]1C[C@@H]2CC[C@@H](C)[C@@](O)(O2)C(=O)C(=O)N2CCCC[C@H]2C(=O)O[C@H]([C@H](C)C[C@@H]2CC[C@@H](OCCO)[C@H](OC)C2)CC(=O)[C@H](C)/C=C(\C)[C@@H](O)[C@@H](OC)C(=O)[C@H](C)C[C@H](C)/C=C/C=C/C=C/1C [everolimus] (partner dose 0.1 µM),39%,65.3%,73.4%,83.8%,67.7%,34.4%,28.2%,66%,51.3%,51.9%,38.9%,80.1%,57.3%,42.2%,66.6%,53.9%,62.8%,46.6%,55.3%,57.4%
CCCCCCCCCCCCCCCCCCOP(=O)([O-])OC1CC[N+](C)(C)CC1 [Perifosine] + CC(C)(C)c1cnc(CSc2cnc(NC(=O)C3CCNCC3)s2)o1 [SNS-032] (partner dose 0.05 µM),77.1%,94.1%,80.7%,65.3%,63.3%,91.9%,87%,88.4%,10.3%,83.8%,40.9%,53.2%,80.9%,78.2%,96.4%,64.2%,58.2%,44.9%,60.7%,92.1%
Cn1sc(=O)n(Cc2ccccc2)c1=O + Cn1cncc1[C@@](N)(c1ccc(Cl)cc1)c1ccc2c(c1)c(-c1cccc(Cl)c1)cc(=O)n2C [tipifarnib] (partner dose 0.05 µM),68.5%,97.5%,67.7%,69.3%,71.3%,95.3%,91.7%,73.8%,51.4%,76%,59.9%,81.5%,68.7%,67.1%,103%,73.3%,66.8%,59.6%,70.3%,82.3%
C[C@@H](N)c1ccc(C(=O)Nc2ccnc3[nH]ccc23)cc1 + O=C(CCCCCCC(=O)Nc1ccccc1)NO [vorinostat] (partner dose 0.4 µM),70.1%,88.7%,104%,85.2%,79.9%,85.1%,48.3%,74.8%,60.2%,45.2%,32.5%,73.9%,78.3%,56.2%,46.1%,67.1%,91.8%,24%,68.2%,90.6%
CCCCCCCCCCCCCCCCCCOP(=O)([O-])OC1CC[N+](C)(C)CC1 [Perifosine] + CO[C@@H]1[C@H](N(C)C(=O)c2ccccc2)C[C@H]2O[C@]1(C)n1c3ccccc3c3c4c(c5c6ccccc6n2c5c31)C(=O)NC4 [Midostaurin] (partner dose 0.4 µM),17.8%,56.4%,64.1%,64.2%,49.3%,73%,48.8%,66.8%,34.3%,30.4%,22.5%,42.5%,49.1%,56.1%,53.8%,59.8%,49.5%,24.9%,27.9%,63.5%
CCCCCCCCCCCCCCCCCCOP(=O)([O-])OC1CC[N+](C)(C)CC1 [Perifosine] + CCN(CC)CCNC(=O)c1c(C)[nH]c(/C=C2\C(=O)Nc3ccc(F)cc32)c1C [sunitinib] (partner dose 2 µM),91.1%,105%,92.5%,69.2%,109%,111%,129%,78.9%,10.3%,81.4%,58%,73.1%,74.8%,62%,113%,71.5%,86.8%,123%,31.8%,75.7%
CCCCCCCCCCCCCCCCCCOP(=O)([O-])OC1CC[N+](C)(C)CC1 [Perifosine] + Cc1cn(-c2cc(NC(=O)c3ccc(C)c(Nc4nccc(-c5cccnc5)n4)c3)cc(C(F)(F)F)c2)cn1 [nilotinib] (partner dose 1 µM),88.2%,111%,120%,102%,134%,99.1%,103%,106%,47.3%,109%,93.9%,110%,92.6%,82.9%,124%,118%,128%,124%,81.6%,101%
